Results reported in the supplement of paper PMC4604168 (melanoma cell lines).
This is one part of the list. Single values are uncertain, as repeats are few or missing.
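Note: cell number obtained by counting DAPI-stained nuclei in high-throughput microscope images with image analysis software, screen run in 1,536-well plates.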

Each compound was assayed on WM1745 (assay: cell count relative to DMSO control; melanoma cells; higher = more viable cells). Conditions: library dose: low library concentration; 72 h.
With `CS(=O)(=O)CCNCc1ccc(-c2ccc3ncnc(Nc4ccc(OCc5cccc(F)c5)c(Cl)c4)c3c2)o1` [lapatinib] + COc1ccc(-c2ccc3c(N4CCOCC4)nc(N4C[C@@H](C)O[C@@H](C)C4)nc3n2)cc1CO [KU0063794] (first compound 0.8 µM, partner dose 0.02 µM) the cell count was 110%.
Compound `C=CCNC1=C2C[C@@H](C)C[C@H](OC)[C@H](O)[C@@H](C)/C=C(\C)[C@H](OC(N)=O)[C@@H](OC)/C=C\C=C(/C)C(=O)NC(=CC1=O)C2=O` [Tanespimycin] + COC(=O)c1sccc1S(=O)(=O)Nc1ccc(Nc2ccccc2)cc1OC [GSK0660] (first compound 0.002 µM, partner dose 1 µM) has a cell count of 105%.
For `C[C@@H](Oc1cc(-c2cnn(C3CCNCC3)c2)cnc1N)c1c(Cl)ccc(F)c1Cl` [Crizotinib] + O=C(O)C(=O)Nc1sc2c(c1C(=O)O)CCNC2 [TCS401] (first compound 0.2 µM, partner dose 1.66667 µM), the cell count was 86.2%.
Compound `CS(=O)(=O)CCNCc1ccc(-c2ccc3ncnc(Nc4ccc(OCc5cccc(F)c5)c(Cl)c4)c3c2)o1` [lapatinib] + COc1cc(Nc2ncc(F)c(Nc3ccc4c(n3)NC(=O)C(C)(C)O4)n2)cc(OC)c1OC [Tamatinib] (first compound 0.8 µM, partner dose 0.4 µM) has a cell count of 84.7%.
Compound `C[C@@H](Oc1cc(-c2cnn(C3CCNCC3)c2)cnc1N)c1c(Cl)ccc(F)c1Cl` [Crizotinib] + CO[C@H]1C[C@@H]2CC[C@@H](C)[C@@](O)(O2)C(=O)C(=O)N2CCCC[C@H]2C(=O)O[C@H]([C@H](C)C[C@@H]2CC[C@@H](OCCO)[C@H](OC)C2)CC(=O)[C@H](C)/C=C(\C)[C@@H](O)[C@@H](OC)C(=O)[C@H](C)C[C@H](C)/C=C/C=C/C=C/1C [everolimus] (first compound 0.2 µM, partner dose 0.02 µM) has a cell count of 87.3%.
In the case of `CN1CCN(c2ccc3nc(-c4c(N)c5c(F)cccc5[nH]c4=O)[nH]c3c2)CC1` [Dovitinib] + C[C@]1(c2nc3c(C(N)=O)cccc3[nH]2)CCCN1 [Veliparib] (first compound 0.1 µM, partner dose 1.4 µM), the cell count is reported as 72.6%.
Work on `C[C@@H](Oc1cc(-c2cnn(C3CCNCC3)c2)cnc1N)c1c(Cl)ccc(F)c1Cl` [Crizotinib] + O=C1NC(=O)/C(=C/c2ccc(-c3ccc(F)cc3O)o2)S1 [AS252424] (first compound 0.2 µM, partner dose 1 µM) yielded a cell count of 107%.
For `CS(=O)(=O)CCNCc1ccc(-c2ccc3ncnc(Nc4ccc(OCc5cccc(F)c5)c(Cl)c4)c3c2)o1` [lapatinib] + O=C1NC(=O)/C(=C/c2ccc(-c3ccc(F)cc3O)o2)S1 [AS252424] (first compound 0.8 µM, partner dose 1 µM), the cell count was 113%.
In the case of `CN1CCN(c2ccc3nc(-c4c(N)c5c(F)cccc5[nH]c4=O)[nH]c3c2)CC1` [Dovitinib] + CN(NC(=O)CC(=O)NN(C)C(=S)c1ccccc1)C(=S)c1ccccc1 [STA4783] (first compound 0.1 µM, partner dose 0.006 µM), the cell count is reported as 58.6%.
`C[C@@H](Oc1cc(-c2cnn(C3CCNCC3)c2)cnc1N)c1c(Cl)ccc(F)c1Cl` [Crizotinib] + CNC(=O)c1cc(Oc2ccc(NC(=O)Nc3ccc(Cl)c(C(F)(F)F)c3)cc2)ccn1 [sorafenib] (first compound 0.2 µM, partner dose 0.4 µM) gave a cell count of 90.3%.
`CS(=O)(=O)CCNCc1ccc(-c2ccc3ncnc(Nc4ccc(OCc5cccc(F)c5)c(Cl)c4)c3c2)o1` [lapatinib] + CCc1ccc(CCOc2ccc(CC3SC(=O)NC3=O)cc2)nc1 [pioglitazone] (first compound 0.8 µM, partner dose 2 µM) gave a cell count of 83.3%.
`C[C@@H](Oc1cc(-c2cnn(C3CCNCC3)c2)cnc1N)c1c(Cl)ccc(F)c1Cl` [Crizotinib] + CCN(CC)CCCCNc1ncc2cc(-c3cc(OC)cc(OC)c3)c(NC(=O)NC(C)(C)C)nc2n1 [PD173074] (first compound 0.2 µM, partner dose 0.1 µM) was tested, and the cell count was 79.9%.
`C[C@@H](Oc1cc(-c2cnn(C3CCNCC3)c2)cnc1N)c1c(Cl)ccc(F)c1Cl` [Crizotinib] + CC(C)(C)c1cnc(CSc2cnc(NC(=O)C3CCNCC3)s2)o1 [SNS-032] (first compound 0.2 µM, partner dose 0.01 µM) was tested, and the cell count was 90%.
In the case of `CNC(=O)c1cc(Oc2ccc(NC(=O)Nc3ccc(Cl)c(C(F)(F)F)c3)cc2)ccn1` [sorafenib] + NC(=O)Nc1cc(-c2cccc(F)c2)sc1C(=O)N[C@H]1CCCNC1 [AZD7762] (first compound 0.4 µM, partner dose 0.02 µM), the cell count is reported as 89.8%.
In the case of `CN1CCN(c2ccc3nc(-c4c(N)c5c(F)cccc5[nH]c4=O)[nH]c3c2)CC1` [Dovitinib] + Nc1nc(F)nc2c1ncn2[C@@H]1O[C@H](CO)[C@@H](O)[C@@H]1O [fludarabine] (first compound 0.1 µM, partner dose 0.2 µM), the cell count is reported as 94.6%.
In the case of `CS(=O)(=O)CCNCc1ccc(-c2ccc3ncnc(Nc4ccc(OCc5cccc(F)c5)c(Cl)c4)c3c2)o1` [lapatinib] + O=S(=O)(c1ccccc1)N(CC(F)(F)F)c1ccc(C(O)(C(F)(F)F)C(F)(F)F)cc1 [T0901317] (first compound 0.8 µM, partner dose 1.4 µM), the cell count is reported as 92.3%.
For `CN1CCN(c2ccc3nc(-c4c(N)c5c(F)cccc5[nH]c4=O)[nH]c3c2)CC1` [Dovitinib] + O=C(CCCCCCC(=O)Nc1ccccc1)NO [vorinostat] (first compound 0.1 µM, partner dose 0.08 µM), the cell count was 93.3%.
For `C[C@@H](Oc1cc(-c2cnn(C3CCNCC3)c2)cnc1N)c1c(Cl)ccc(F)c1Cl` [Crizotinib] + Cn1cc(/C=C2\C(=O)Nc3cccnc32)c2ccccc21 [GW441756] (first compound 0.2 µM, partner dose 0.4 µM), the cell count was 104%.
In the case of `CN1CCN(c2ccc3nc(-c4c(N)c5c(F)cccc5[nH]c4=O)[nH]c3c2)CC1` [Dovitinib] + Cc1cc(N2CCOCC2)cc2[nH]c(-c3c(NC[C@@H](O)c4cccc(Cl)c4)cc[nH]c3=O)nc12 [BMS536924] (first compound 0.1 µM, partner dose 0.2 µM), the cell count is reported as 70.7%.
`CS(=O)(=O)CCNCc1ccc(-c2ccc3ncnc(Nc4ccc(OCc5cccc(F)c5)c(Cl)c4)c3c2)o1` [lapatinib] + Clc1ccc(Nc2nnc(Cc3ccncc3)c3ccccc23)cc1 [vatalanib] (first compound 0.8 µM, partner dose 2 µM) showed a cell count of 101%.
